From patent US6730301

Target: T1, MIP-1α/RANTES receptor (Homo sapiens (Human), UniProt P32246 1-355)
T1 sequence: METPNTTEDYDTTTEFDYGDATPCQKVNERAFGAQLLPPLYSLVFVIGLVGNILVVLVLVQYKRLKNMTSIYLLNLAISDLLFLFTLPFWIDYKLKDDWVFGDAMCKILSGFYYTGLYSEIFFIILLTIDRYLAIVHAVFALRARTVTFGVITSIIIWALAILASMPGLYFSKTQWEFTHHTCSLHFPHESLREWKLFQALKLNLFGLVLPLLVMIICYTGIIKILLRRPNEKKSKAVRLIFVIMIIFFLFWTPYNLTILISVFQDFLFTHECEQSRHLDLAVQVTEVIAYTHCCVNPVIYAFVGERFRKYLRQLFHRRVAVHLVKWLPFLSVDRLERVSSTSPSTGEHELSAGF
Test: cell-based or functional assay

B1: IL-8 (interleukin-8) (ligand)
chain: not shown
  IC50, Inhibition of Adenylyl Cyclase: > 1000 nM
